Assay results taken from the supplement of paper PMC8728848.
This is one part of the list.

Legend:
Assay in all cases: glycan array binding signal (z-score within array); higher = stronger binding
Details in all cases: glycan notation: IUPAC condensed, linker removed
[1] = biological target: Neu5Ac(a2-3)Gal(b1-3)GlcNAc(b1-6)GalNAc
Summary of the method: (§1)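 Columns mapping to the same glycan were averaged after glycan names were converted to IUPAC-condensed notation. The data come from 3228 arrays in the Consortium for Functional Glycomics database, limited to those with an available protein sequence. Binding is reported as a within-array Z-score averaged across arrays of one protein sequence and across linkers.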

[2] = biological target: Neu5Ac(a2-3)Gal(b1-3)GlcNAc6S
Summary of the method: as §1

[3] = biological target: Neu5Ac(a2-3)Gal(b1-3)[Fuc(a1-4)]GlcNAc
Summary of the method: as §1

[4] = biological target: Neu5Ac(a2-3)Gal(b1-3)[Fuc(a1-4)]GlcNAc(b1-3)Gal(b1-3)[Fuc(a1-4)]GlcNAc
Summary of the method: as §1

[5] = biological target: Neu5Ac(a2-3)Gal(b1-3)[Fuc(a1-4)]GlcNAc(b1-3)Gal(b1-4)[Fuc(a1-3)]GlcNAc
Summary of the method: as §1

[6] = biological target: Neu5Ac(a2-3)Gal(b1-3)[GlcNAc(b1-6)]GalNAc
Summary of the method: as §1

[7] = biological target: Neu5Ac(a2-3)Gal(b1-3)[Neu5Ac(a2-6)]GalNAc
Summary of the method: as §1

[8] = biological target: Neu5Ac(a2-3)Gal(b1-3)[Neu5Ac(a2-6)]GlcNAc(b1-3)[Fuc(a1-3)[Gal(b1-4)]GlcNAc(b1-6)]Gal(b1-4)Glc
Summary of the method: as §1

[9] = biological target: Neu5Ac(a2-3)Gal(b1-3)]Neu5Ac(a2-3)Gal(b1-4)]GlcNAc
Summary of the method: as §1

Neu5Ac(a2-3)Gal(b1-4)Glc = biological target: Neu5Ac(a2-3)Gal(b1-4)Glc
Summary of the method: as §1

[10] = biological target: Neu5Ac(a2-3)Gal(b1-4)GlcNAc
Summary of the method: as §1

[11] = biological target: Neu5Ac(a2-3)Gal(b1-4)GlcNAc(b1-2)Man
Summary of the method: as §1

[12] = biological target: Neu5Ac(a2-3)Gal(b1-4)GlcNAc(b1-2)Man(a1-3)[GlcNAc(b1-4)][Neu5Ac(a2-3)Gal(b1-4)GlcNAc(b1-2)Man(a1-6)]Man(b1-4)GlcNAc(b1-4)GlcNAc
Summary of the method: as §1

[13] = biological target: Neu5Ac(a2-3)Gal(b1-4)GlcNAc(b1-2)Man(a1-3)[Neu5Ac(a2-3)Gal(b1-4)GlcNAc(b1-2)Man(a1-6)]Man(b1-4)GlcNAc(b1-4)GlcNAc
Summary of the method: as §1

[14] = biological target: Neu5Ac(a2-3)Gal(b1-4)GlcNAc(b1-2)Man(a1-3)[Neu5Ac(a2-3)Gal(b1-4)GlcNAc(b1-2)Man(a1-6)]Man(b1-4)GlcNAc(b1-4)[Fuc(a1-6)]GlcNAc
Summary of the method: as §1

[15] = biological target: Neu5Ac(a2-3)Gal(b1-4)GlcNAc(b1-2)Man(a1-3)[Neu5Ac(a2-6)Gal(b1-4)GlcNAc(b1-2)Man(a1-6)]Man(b1-4)GlcNAc(b1-4)GlcNAc
Summary of the method: as §1

[16] = biological target: Neu5Ac(a2-3)Gal(b1-4)GlcNAc(b1-2)[Neu5Ac(a2-3)Gal(b1-4)GlcNAc(b1-4)]Man(a1-3)[GlcNAc(b1-4)][Neu5Ac(a2-3)Gal(b1-4)GlcNAc(b1-2)[Neu5Ac(a2-3)Gal(b1-4)GlcNAc(b1-6)]Man(a1-6)]Man(b1-4)GlcNAc(b1-4)GlcNAc
Summary of the method: as §1

[17] = biological target: Neu5Ac(a2-3)Gal(b1-4)GlcNAc(b1-2)[Neu5Ac(a2-3)Gal(b1-4)GlcNAc(b1-4)]Man(a1-3)[GlcNAc(b1-4)][Neu5Ac(a2-3)Gal(b1-4)GlcNAc(b1-4)Man(a1-6)]Man(b1-4)GlcNAc(b1-4)GlcNAc
Summary of the method: as §1

[18] = biological target: Neu5Ac(a2-3)Gal(b1-4)GlcNAc(b1-2)[Neu5Ac(a2-3)Gal(b1-4)GlcNAc(b1-6)]Man(a1-6)[Neu5Ac(a2-3)Gal(b1-4)GlcNAc(b1-2)Man(a1-3)][GlcNAc(b1-4)]Man(b1-4)GlcNAc(b1-4)GlcNAc
Summary of the method: as §1

[19] = biological target: Neu5Ac(a2-3)Gal(b1-4)GlcNAc(b1-3)Gal
Summary of the method: as §1

[20] = biological target: Neu5Ac(a2-3)Gal(b1-4)GlcNAc(b1-3)Gal(b1-3)GlcNAc
Summary of the method: as §1

[21] = biological target: Neu5Ac(a2-3)Gal(b1-4)GlcNAc(b1-3)Gal(b1-4)GlcNAc
Summary of the method: as §1

[22] = biological target: Neu5Ac(a2-3)Gal(b1-4)GlcNAc(b1-3)Gal(b1-4)GlcNAc(b1-2)Man(a1-3)[Neu5Ac(a2-3)Gal(b1-4)GlcNAc(b1-3)Gal(b1-4)GlcNAc(b1-2)Man(a1-6)]Man(b1-4)GlcNAc(b1-4)GlcNAc
Summary of the method: as §1

[23] = biological target: Neu5Ac(a2-3)Gal(b1-4)GlcNAc(b1-3)Gal(b1-4)GlcNAc(b1-3)Gal(b1-4)GlcNAc
Summary of the method: as §1

[24] = biological target: Neu5Ac(a2-3)Gal(b1-4)GlcNAc(b1-3)Gal(b1-4)GlcNAc(b1-3)Gal(b1-4)GlcNAc(b1-2)Man(a1-3)[Neu5Ac(a2-3)Gal(b1-4)GlcNAc(b1-3)Gal(b1-4)GlcNAc(b1-3)Gal(b1-4)GlcNAc(b1-2)Man(a1-6)]GalNAc
Summary of the method: as §1

[25] = biological target: Neu5Ac(a2-3)Gal(b1-4)GlcNAc(b1-3)Gal(b1-4)GlcNAc(b1-3)GalNAc
Summary of the method: as §1

[26] = biological target: Neu5Ac(a2-3)Gal(b1-4)GlcNAc(b1-3)Gal(b1-4)GlcNAc(b1-3)[Neu5Ac(a2-3)Gal(b1-4)GlcNAc(b1-3)Gal(b1-4)GlcNAc(b1-6)]GalNAc
Summary of the method: as §1

[27] = biological target: Neu5Ac(a2-3)Gal(b1-4)GlcNAc(b1-3)Gal(b1-4)GlcNAc(b1-6)[Gal(b1-3)]GalNAc
Summary of the method: as §1

[28] = biological target: Neu5Ac(a2-3)Gal(b1-4)GlcNAc(b1-3)Gal(b1-4)[Fuc(a1-3)]GlcNAc
Summary of the method: as §1

[29] = biological target: Neu5Ac(a2-3)Gal(b1-4)GlcNAc(b1-3)GalNAc
Summary of the method: as §1

[30] = biological target: Neu5Ac(a2-3)Gal(b1-4)GlcNAc(b1-3)[Neu5Ac(a2-3)Gal(b1-4)GlcNAc(b1-6)]GalNAc
Summary of the method: as §1

[31] = biological target: Neu5Ac(a2-3)Gal(b1-4)GlcNAc(b1-6)GalNAc
Summary of the method: as §1

[32] = biological target: Neu5Ac(a2-3)Gal(b1-4)GlcNAc(b1-6)[Gal(b1-3)]GalNAc
Summary of the method: as §1

[33] = biological target: Neu5Ac(a2-3)Gal(b1-4)GlcNAc(b1-6)[Neu5Ac(a2-3)Gal(b1-3)]GalNAc
Summary of the method: as §1

[34] = biological target: Neu5Ac(a2-3)Gal(b1-4)GlcNAc6S
Summary of the method: as §1

[35] = biological target: Neu5Ac(a2-3)Gal(b1-4)[Fuc(a1-3)]GlcNAc
Summary of the method: as §1

[36] = biological target: Neu5Ac(a2-3)Gal(b1-4)[Fuc(a1-3)]GlcNAc(b1-2)Man
Summary of the method: as §1

[37] = biological target: Neu5Ac(a2-3)Gal(b1-4)[Fuc(a1-3)]GlcNAc(b1-3)Gal
Summary of the method: as §1

[38] = biological target: Neu5Ac(a2-3)Gal(b1-4)[Fuc(a1-3)]GlcNAc(b1-3)Gal(b1-4)GlcNAc
Summary of the method: as §1

[39] = biological target: Neu5Ac(a2-3)Gal(b1-4)[Fuc(a1-3)]GlcNAc(b1-3)Gal(b1-4)[Fuc(a1-3)]GlcNAc(b1-3)Gal(b1-4)[Fuc(a1-3)]GlcNAc
Summary of the method: as §1

[40] = biological target: Neu5Ac(a2-3)Gal(b1-4)[Fuc(a1-3)]GlcNAc(b1-3)GalNAc
Summary of the method: as §1

[41] = biological target: Neu5Ac(a2-3)Gal(b1-4)[Fuc(a1-3)]GlcNAc(b1-6)[Gal(b1-3)]GalNAc
Summary of the method: as §1

[42] = biological target: Neu5Ac(a2-3)Gal(b1-4)[Fuc(a1-3)]GlcNAc(b1-6)[Neu5Ac(a2-3)Gal(b1-3)]GalNAc
Summary of the method: as §1

[43] = biological target: Neu5Ac(a2-3)Gal(b1-4)[Fuc(a1-3)]GlcNAc6S
Summary of the method: as §1

[44] = biological target: Neu5Ac(a2-3)Gal6S(b1-4)GlcNAc
Summary of the method: as §1

B1: MGL (Homo sapiens), Q8IUN9 (protein)
chain: MTRTYENFQYLENKVKVQGFKNGPLPLQSLLQRLCSGPCHLLLSLGLGLLLLVIICVVGFQNSKFQRDLVTLRTDFSNFTSNTVAEIQALTSQGSSLEETIASLKAEVEGFKQERQAGVSELQEHTTQKAHLGHCPHCPSVCVPVHSEMLLRVQQLVQDLKKLTCQVATLNNNASTEGTCCPVNWVEHQDSCYWFSHSGMSWAEAEKYCQLKNAHLVVINSREEQNFVQKYLGSAYTWMGLSDPEGAWKWVDGTDYATGFQNWKPGQPDDWQGHGLGGGEDCAHFHPDGRWNDDVCQRPYHWVCEAGLGQTSQESH
glycan array binding signal (z-score) [1]: 2.82
glycan array binding signal (z-score) [2]: -0.243
glycan array binding signal (z-score) [3]: -0.249
glycan array binding signal (z-score) [4]: -0.219
glycan array binding signal (z-score) [5]: -0.219
glycan array binding signal (z-score) [6]: -0.817
glycan array binding signal (z-score) [7]: -0.217
glycan array binding signal (z-score) [8]: -0.232
glycan array binding signal (z-score) [9]: -0.234
glycan array binding signal (z-score) (Neu5Ac(a2-3)Gal(b1-4)Glc): -0.306
glycan array binding signal (z-score) [10]: -0.24
glycan array binding signal (z-score) [11]: -0.19
glycan array binding signal (z-score) [12]: -0.24
glycan array binding signal (z-score) [13]: -0.19
glycan array binding signal (z-score) [14]: -0.237
glycan array binding signal (z-score) [15]: -0.239
glycan array binding signal (z-score) [16]: -0.245
glycan array binding signal (z-score) [17]: -0.243
glycan array binding signal (z-score) [18]: -0.24
glycan array binding signal (z-score) [19]: -0.539
glycan array binding signal (z-score) [20]: -0.241
glycan array binding signal (z-score) [21]: -0.238
glycan array binding signal (z-score) [22]: -0.695
glycan array binding signal (z-score) [23]: -0.254
glycan array binding signal (z-score) [24]: -0.22
glycan array binding signal (z-score) [25]: -0.251
glycan array binding signal (z-score) [26]: -0.277
glycan array binding signal (z-score) [27]: -0.25
glycan array binding signal (z-score) [28]: -0.251
glycan array binding signal (z-score) [29]: -0.244
glycan array binding signal (z-score) [30]: -0.527
glycan array binding signal (z-score) [31]: 3.25
glycan array binding signal (z-score) [32]: -0.238
glycan array binding signal (z-score) [33]: -0.245
glycan array binding signal (z-score) [34]: -0.244
glycan array binding signal (z-score) [35]: -0.243
glycan array binding signal (z-score) [36]: -0.243
glycan array binding signal (z-score) [37]: -0.244
glycan array binding signal (z-score) [38]: -0.239
glycan array binding signal (z-score) [39]: -0.238
glycan array binding signal (z-score) [40]: -0.196
glycan array binding signal (z-score) [41]: -0.235
glycan array binding signal (z-score) [42]: -0.24
glycan array binding signal (z-score) [43]: -0.244
glycan array binding signal (z-score) [44]: -0.246
